PubChem BioAssay AID720709 (National Center for Advancing Translational Sciences (NCATS), 2013)
Among all 360,000 compounds or so, about 520 (0.14%) were called active. This list was built around the results that the source calls inconclusive (neither active nor inactive); the mix of calls is not that of the screen. The call rests on the fitted dose curve; in most records, active means well fitted inhibition curve with a large enough effect; inconclusive means small, poorly fitted or top-dose-only effect; inactive means no such curve, though single readings can be large or run the other way. No potency is given beside an inconclusive call; the fits are too rough.
Further: nearly all actives have a fitted effect of over 50% in size.
Potency means the concentration at half of the fitted maximal effect; tags describe the fitted curve by direction and shape.
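Wherever activity change, negative = inhibition is given: plate controls were vehicle for no effect and positive control for full effect.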

The molecules below were run against Rap guanine nucleotide exchange factor 3 (Homo sapiens) (UniProt O95398) (assay: qHTS for Antagonist of cAMP-regulated guanine nucleotide exchange factor 3 (EPAC1): primary screen). Details: EPAC1 GEF assay, Rap1b-BODIPY-GDP exchange fluorescence; activity change, negative = inhibition: at 115 µM (top of the series).
Chain of UniProt O95398 (O95398 whole entry, looked up): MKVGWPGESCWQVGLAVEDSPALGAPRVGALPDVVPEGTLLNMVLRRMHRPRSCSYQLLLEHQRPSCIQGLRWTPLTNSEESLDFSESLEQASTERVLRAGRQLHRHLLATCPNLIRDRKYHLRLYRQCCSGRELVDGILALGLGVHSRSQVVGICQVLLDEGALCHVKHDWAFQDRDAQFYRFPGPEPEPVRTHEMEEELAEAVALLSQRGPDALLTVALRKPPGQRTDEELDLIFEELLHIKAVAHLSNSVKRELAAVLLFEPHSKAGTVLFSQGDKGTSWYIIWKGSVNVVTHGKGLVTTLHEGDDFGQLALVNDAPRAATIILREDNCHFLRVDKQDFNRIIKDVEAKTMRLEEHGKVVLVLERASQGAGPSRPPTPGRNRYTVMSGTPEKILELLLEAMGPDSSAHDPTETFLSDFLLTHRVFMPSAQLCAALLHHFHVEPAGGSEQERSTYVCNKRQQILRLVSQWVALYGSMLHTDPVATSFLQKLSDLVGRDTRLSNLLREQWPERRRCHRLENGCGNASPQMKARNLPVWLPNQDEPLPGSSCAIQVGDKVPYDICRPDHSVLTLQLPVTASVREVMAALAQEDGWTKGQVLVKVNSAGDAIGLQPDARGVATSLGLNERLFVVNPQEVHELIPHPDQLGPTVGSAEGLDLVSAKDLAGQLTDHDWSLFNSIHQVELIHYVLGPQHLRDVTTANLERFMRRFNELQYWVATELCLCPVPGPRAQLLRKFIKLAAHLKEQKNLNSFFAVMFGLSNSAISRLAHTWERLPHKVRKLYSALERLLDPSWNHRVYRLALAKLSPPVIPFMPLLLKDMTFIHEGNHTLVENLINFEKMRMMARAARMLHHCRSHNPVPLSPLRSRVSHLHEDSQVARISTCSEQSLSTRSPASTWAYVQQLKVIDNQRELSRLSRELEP
For `CCCOc1ccc(CN(C)c2ncnc(N)n2)cc1`, the Potency was inconclusive [inhibitor, single point]. For `O=C(NCc1nc2ccccc2[nH]1)C1=C[C@@H](c2ccc(Br)cc2)C[C@@H](OCc2ccc(CO)cc2)O1`, the Potency was inconclusive [inhibitor, partial curve]. For `COc1ccc(-n2nc3c(N4CCC(C(=O)NCc5ccccc5C)CC4)nnc(C)c3c2C)cc1`, the Potency was inconclusive [inhibitor, full curve, poor fit]. `O=C(NNC(=O)c1ccc(F)cc1)c1ccncc1` was tested, and the “activity change, negative = inhibition” value was inactive: 7.47%. In the case of `Cc1cc(C(=O)C(C)Cl)c(C)n1Cc1ccco1` (centres undefined), the Potency is reported as inconclusive [inhibitor, partial curve]. With `CCOC(=O)c1c(-c2ccccc2)oc2ccc(O)c(CN3CCN(C)CC3)c12` the Potency was inconclusive [inhibitor, single point]. In the case of `O=C(/C=C/c1c(F)cccc1Cl)c1ccc(F)cc1`, the Potency is reported as inconclusive [inhibitor, single point]. With `Cc1ccc(NC(=O)CN(Cc2ccco2)Cc2ccccc2O)cc1C` the Potency was inconclusive [inhibitor, partial curve]. With `O=C(c1ccc(S(=O)(=O)N2CCOCC2)cc1)N(c1ccccn1)C1CCCCC1` the Potency was inconclusive [inhibitor, single point]. In the case of `CCOC(=O)COc1c(-c2ccc(OC)cc2)oc2ccccc2c1=O`, the Potency is reported as inconclusive [inhibitor, partial curve]. `CCN(CC)CCn1c(NCc2ccc3c(c2)OCO3)nc2ccccc21` was tested, and the Potency was inconclusive [inhibitor, single point]. With `COc1ccc(Cl)cc1NC(=O)COC(=O)C1CC1` the Potency was inconclusive [inhibitor, partial curve]. `Cc1ccc(NC(=O)Nc2nnc(-c3ccncc3)s2)cc1` was tested, and the Potency was inconclusive [inhibitor, partial curve]. With `Cc1onc(-c2ccccc2)c1C(=O)Nc1nnc(COc2ccc(Cl)cc2)s1` the “activity change, negative = inhibition” value was inactive: -22.3%. `O=C(N/N=C/c1cccnc1)c1cc(O)c(O)c(O)c1` was tested, and the Potency was inconclusive [inhibitor, partial curve]. In the case of `CC(Sc1ncn[nH]1)C(=O)Nc1ccc(Cl)cn1` (centres undefined), the Potency is reported as inconclusive [inhibitor, partial curve]. `O=C(COC(=O)CCSc1ccc(Cl)cc1)NCCc1ccccc1` was tested, and the Potency was inconclusive [inhibitor, single point]. For `COc1ccc(S(=O)(=O)N(Cc2nc3ccccc3c(=O)[nH]2)C2CCCC2)cc1`, the Potency was inconclusive [inhibitor, single point]. `CC(NC(=O)c1ccccc1NC(=O)c1ccco1)C(=O)O` (centres undefined) was tested, and the Potency was inconclusive [inhibitor, single point]. With `CC1=C(CO)C(=O)OC([C@@H](C)C2CC[C@H]3C4C[C@H]5O[C@]56[C@@H](O)C=CC(=O)[C@]6(C)C4CC[C@]23C)C1` (some centres undefined) the Potency was inconclusive [inhibitor, partial curve]. With `Cn1c(SCc2ccccc2F)nnc1-c1cnccn1` the “activity change, negative = inhibition” value was inactive: -14.5%. For `COc1ccc(-c2nc3c(c(SCC(=O)Nc4cccc(O)c4)n2)Cc2c(CO)cnc(C)c2O3)cc1`, the Potency was inconclusive [inhibitor, partial curve]. With `Cc1nc(CNC(=O)c2cc(COc3ccc(F)cc3Cl)on2)cs1` the Potency was inconclusive [inhibitor, single point]. For `CNC(=S)NNC(=O)c1ccc(=O)n(Cc2ccc(Cl)cc2Cl)c1`, the Potency was inconclusive [inhibitor, full curve, poor fit]. With `O=C(Nc1cccc(C(F)(F)F)c1)c1cc2c(s1)-c1ccccc1OC2` the Potency was inconclusive [inhibitor, single point]. In the case of `COc1cc(/C=C/c2sc3ccccc3[n+]2CCCS(=O)(=O)[O-])ccc1O`, the Potency is reported as inconclusive [inhibitor, full curve, poor fit]. `CC(C)(C)c1nn2cnnc2n(/N=C/c2cccc3ccccc23)c1=O` was tested, and the Potency was inconclusive [inhibitor, partial curve]. In the case of `CCCCOc1ccc(-c2cnc3ccccc3n2)cc1`, the Potency is reported as inconclusive [inhibitor, single point]. For `Cc1ccc(C(CCN(Cc2ccccc2)C(=O)c2ccco2)c2ccco2)cc1` (centres undefined), the Potency was active: 50.1 µM. `C[C@H](CO)N1C[C@H](C)[C@@H](CN(C)S(=O)(=O)c2ccc(F)cc2)Oc2c(NC(=O)Nc3ccc4c(c3)OCO4)cccc2C1=O` was tested, and the Potency was inconclusive [inhibitor, full curve, poor fit]. `CCCC(=O)N(C1CC(C)C(C#N)(C#N)C1(C#N)C#N)N(C)C` (centres undefined) was tested, and the “activity change, negative = inhibition” value was inactive: -3.4%. `COc1cc(C)cc(C(=O)C=Cc2ccccc2)c1O` was tested, and the Potency was inconclusive [inhibitor, partial curve, poor fit]. For `CC1=NN(/C(=N\c2nnc(C)s2)Nc2ccccc2)[C@H](c2cccc3ccccc23)S1`, the Potency was inconclusive [inhibitor, single point]. `CCOc1ccc(N2CC(C(=O)Nc3ccc(OC)c(S(=O)(=O)N4CCCCC4)c3)CC2=O)cc1` (centres undefined) was tested, and the Potency was inconclusive [inhibitor, single point]. With `C=CCOc1ccc(C2C(C(=O)c3cccs3)=C(O)C(=O)N2c2nnc(C)s2)cc1` (centres undefined) the “activity change, negative = inhibition” value was inactive: 7.97%. With `N#C/C(=N\Nc1cccc(C(F)(F)F)c1)C(=O)c1csc(-c2cccnc2)n1` the Potency was inconclusive [inhibitor, partial curve]. For `CCn1c(/C=C/c2c[nH]c3ccccc23)nc2ccccc2c1=O`, the “activity change, negative = inhibition” value was inactive: -4.13%. In the case of `CCCOc1ccc(OCCCCNC(C)CC)cc1` (centres undefined), the activity change, negative = inhibition is reported as inconclusive: -6.97% [inhibitor]. With `COc1cc2cc(-c3ccc(O)cc3O)nc(C)c2cc1OC` the Potency was inconclusive [inhibitor, single point]. With `COCCn1c(SCC(=O)/C=C2\N(C)c3ccccc3C2(C)C)nnc1-c1ccncc1` the Potency was inconclusive [inhibitor, single point]. In the case of `Cc1ccccc1C(=O)NC(=S)Nc1ccccc1C(=O)O`, the Potency is reported as inconclusive [inhibitor, full curve, poor fit]. In the case of `COc1cccc(C(=O)C2CCCN(CC3=Cc4cc(OC)ccc4OC3)C2)c1` (centres undefined), the Potency is reported as inconclusive [inhibitor, single point]. With `Cc1ccc(SCC(=O)NCCCc2ccccc2)cc1` the Potency was inconclusive [inhibitor, full curve, poor fit]. For `CCNC(=O)c1cc2c(c(-c3cccc(-c4cc5ccccc5o4)c3)n1)[C@H](CCO)N(C(=O)NC(C)C)C2`, the “activity change, negative = inhibition” value was inactive: -8.4%. For `c1ccc2c(c1)OCCc1c-2[nH]c2ccccc12`, the “activity change, negative = inhibition” value was inactive: -26.4%. With `CC(C)c1cc(C(=O)NCCc2ccccc2)no1` the Potency was inconclusive [inhibitor, partial curve]. `CC(=O)N1CCSc2ccc(S(=O)(=O)NCCc3ccc(Cl)cc3)cc21` was tested, and the Potency was inconclusive [inhibitor, single point]. For `O=C(c1ccc(F)cc1)C(CN1CCOCC1)c1ccccc1` (centres undefined), the Potency was inconclusive [inhibitor, partial curve]. `CCN(CC)S(=O)(=O)c1cccc(C(=O)Nc2ccc(S(=O)(=O)NC3=NCCCCC3)cc2)c1` was tested, and the Potency was inconclusive [inhibitor, single point]. With `CN(C(=O)CN1CCN(c2cc(-c3ccc(-c4ccccc4)cc3)ncn2)CC1)c1ccccc1` the Potency was inconclusive [inhibitor, partial curve]. In the case of `CC(=O)c1ccc(S(=O)(=O)N2CCC(c3nnc(SCCN4CCCC4)n3C)CC2)cc1`, the Potency is reported as inconclusive [inhibitor, single point]. In the case of `COc1cc(-c2cc(C(=O)Nc3cccc(C(C)=O)c3)c3ccccc3n2)cc(OC)c1OC`, the Potency is reported as inconclusive [inhibitor, partial curve, poor fit]. In the case of `CCCn1c(SCC(=O)NCCCN2CCCC2=O)nc2ccccc2c1=O`, the “activity change, negative = inhibition” value is reported as inactive: -21.7%. `CC(=O)Nc1ccc(NC(=S)NC(=O)/C=C/c2ccco2)cc1` was tested, and the Potency was inconclusive [inhibitor, partial curve]. For `CCOc1ccccc1N(C(=O)c1ccccc1Cl)C1=NC(C)(C)CS1`, the Potency was inconclusive [inhibitor, full curve, poor fit]. With `O=[N+]([O-])c1cccc(/C=N/N2CCN(c3ccccn3)CC2)c1` the “activity change, negative = inhibition” value was inactive: -20.4%. In the case of `CC1(C)CC(=O)C2=C(C1)NC(SCC(=O)Nc1ccccc1)=C(C#N)C21CCCCC1`, the “activity change, negative = inhibition” value is reported as inactive: 6.68%. With `CCc1ccc(OCCCC(=O)Nc2nnc(C3CCCO3)s2)cc1` (centres undefined) the “activity change, negative = inhibition” value was inactive: -11.1%. With `CC(=O)c1ccc(N2CCN(C(=O)c3ccc4[nH]c(C)c(C)c4c3)CC2)cc1` the Potency was inconclusive [inhibitor, single point]. With `COCc1cc(C)[nH]c(=O)c1C(=O)NC12CC3CC(CC(C3)C1)C2` the Potency was inconclusive [inhibitor, partial curve]. For `O=C(CSc1ccc(Br)c2cccc(Cl)c12)Nc1ccc(S(=O)(=O)Nc2nccs2)cc1`, the Potency was inconclusive [inhibitor, partial curve]. In the case of `CCCc1nnc(NC(=O)CCC(=O)N2CCN(Cc3ccccc3)CC2)s1`, the Potency is reported as inconclusive [inhibitor, partial curve, poor fit]. In the case of `O=C1CC(c2cc(F)ccc2F)c2cc3c(cc2N1)CCC3` (centres undefined), the Potency is reported as inconclusive [inhibitor, partial curve]. In the case of `Cc1cc(C)c2oc(=O)cc(CN3CCN(Cc4ccc5c(c4)OCO5)CC3)c2c1`, the Potency is reported as inconclusive [inhibitor, single point].
